Literature values in PMC11006913.
This is one part of the list.

What was measured:
Conditions in all cases: PBM; conditions not shown; double strand, one strand shown; scale: upbm affinity estimate (log intensity, higher = more binding, comparable within an allelic series)
[1] = molecular target: HOXD13 I297V (Homo sapiens) (UniProt P35453)
[2] = molecular target: HOXD13 I322L (Homo sapiens) (UniProt P35453)
[3] = molecular target: HOXD13 N298S (Homo sapiens) (UniProt P35453)
[4] = molecular target: HOXD13 Q325K (Homo sapiens) (UniProt P35453)
[5] = molecular target: HOXD13 Q325R (Homo sapiens) (UniProt P35453)
[6] = molecular target: HOXD13 R306W (Homo sapiens) (UniProt P35453)
[7] = molecular target: HOXD13 S316C (Homo sapiens) (UniProt P35453)
[8] = molecular target: PITX2 L100Q (Homo sapiens) (UniProt Q99697)
[9] = molecular target: PITX2 R108H (Homo sapiens) (UniProt Q99697)
[10] = molecular target: PITX2 R130W (Homo sapiens) (UniProt Q99697)
[11] = molecular target: PITX2 T114P (Homo sapiens) (UniProt Q99697)
[12] = molecular target: NKX2-5 K183E (Homo sapiens) (UniProt P52952)
[13] = molecular target: NKX2-5 R161P (Homo sapiens) (UniProt P52952)
[14] = molecular target: NKX2-5 R190C (Homo sapiens) (UniProt P52952)
[15] = molecular target: PROP1 R112Q (Homo sapiens) (UniProt O75360)
[16] = molecular target: PROP1 R99Q (Homo sapiens) (UniProt O75360)
ISX (Homo sapiens) = ISX (Homo sapiens) (UniProt Q2M1V0)
ISX R83Q (Homo sapiens) = ISX R83Q (Homo sapiens) (UniProt Q2M1V0)

Sequence	binding signal [1]	binding signal [2]	binding signal [3]	binding signal [4]	binding signal [5]	binding signal [6]	binding signal [7]	binding signal [8]	binding signal [9]	binding signal [10]	binding signal [11]	binding signal [12]	binding signal [13]	binding signal [14]	binding signal [15]	binding signal [16]	binding signal (ISX (Homo sapiens))	binding signal (ISX R83Q (Homo sapiens))
TTAATAAA [8-mer TTAATAAA]	12.2	11.3	12.5	11.3	11.9	12	12.3											
TGATGTAA [8-mer TGATGTAA]	11.1	10.8	11.1	10.6	10.7	10.6	10.8											
ACGGTCCC [8-mer ACGGTCCC]	9.37	9.34	9.25	9.28	9.39	9.27	9.37											
CTTTATTA [8-mer CTTTATTA]	12.2	11.3	12.4	11	12	11.4	12.2											
AGGCACGC [8-mer AGGCACGC]	9.44	9.37	9.32	9.26	9.39	9.37	9.49											
GAGGGACC [8-mer GAGGGACC]	9.62	9.49	9.59	9.42	9.45	9.41	9.53	8.27	7.97	7.94	8.1							
CCGTGCCG [8-mer CCGTGCCG]	9.37	9.53	9.49	9.53	9.45	9.54	9.45	8.03	8	8.03	8.04							
CGGCCACC [8-mer CGGCCACC]	9.36	9.26	9.28	9.33	9.24	9.3	9.26					9.83	9.73	9.9				
GCCCGCAC [8-mer GCCCGCAC]	9.41	9.45	9.27	9.59	9.31	9.41	9.39								10.9	11		
AGGGCGGA [8-mer AGGGCGGA]	9.3	9.3	9.25	9.3	9.17	9.21	9.27	8.4	8.07	7.92	8.08							
AGTCGGCG [8-mer AGTCGGCG]	9.55	9.52	9.47	9.56	9.51	9.54	9.59								10.9	11		
CACATAAA [8-mer CACATAAA]	12.3	11.1	12.5	10.7	12	11.5	12											
CCACGCCC [8-mer CCACGCCC]	9.29	9.3	9.26	9.47	9.21	9.32	9.33								10.8	10.9		
CGGGCGGA [8-mer CGGGCGGA]	9.51	9.43	9.47	9.61	9.48	9.4	9.41											
GCCGTAGC [8-mer GCCGTAGC]	9.59	9.56	9.54	9.29	9.4	9.44	9.53	8.19	8.14	8.13	8.11							
CTGTAAAA [8-mer CTGTAAAA]	12.3	12.2	12.4	10.3	10.6	11.4	12											
TTAAAGAA [8-mer TTAAAGAA]	10.9	11	11.1	10.8	10.9		10.8											
CGGTACCG [8-mer CGGTACCG]	9.29	9.36	9.21	9.13	9.36	9.3	9.29	8.26	7.99	7.94	8.07				10.9	10.9	9.78	9.8
ACAATAAA [8-mer ACAATAAA]	12.5	11.3	12.8	11.1	11.7	11.9	12.5											
CGCCCCGC [8-mer CGCCCCGC]	9.44	9.52	9.37	9.57	9.42	9.45	9.46	8.38	8.21	7.77	8.14							
CACCGGCC [8-mer CACCGGCC]	9.47	9.45	9.27	9.29	9.43	9.32	9.33	8.05	7.9	7.86	7.93				10.9	10.9		
CCTCGCCG [8-mer CCTCGCCG]	9.57	9.37	9.44	9.44	9.48	9.37	9.39					10.1	10.2	10.1				
GATTTTTA [8-mer GATTTTTA]	11.4	10.9	11.3	11	11.2		11.1											
CCCGGCAG [8-mer CCCGGCAG]	9.53	9.59	9.51	9.63	9.5	9.39	9.41	8.35	8.06	7.89	8.06							
CCACCCGC [8-mer CCACCCGC]	9.65	9.67	9.63	9.65	9.63	9.55	9.67					10	10	9.96				
TAACTATA [8-mer TAACTATA]	11.7	11.3	11.8	11	11.2	11	11.4								11.9			
